Laboratory results: PubChem BioAssay AID624418 (National Center for Advancing Translational Sciences (NCATS), 2012)
In all, about 410,000 compounds went through this assay and about 530 (0.13%) were called active. The shares of active, inactive and inconclusive entries below differ from those in the screen. The call rests on the fitted dose curve; in most records, active means well fitted inhibition curve with a large enough effect; inconclusive means small, poorly fitted or top-dose-only effect, or another doubt; inactive means no such curve, though single readings can be large or run the other way. Potencies beside an inconclusive call are fits to weak or partial responses and may not hold up.
On the % scale 0 is the no-effect control and ±100 the full control effect; potency means the concentration at half of the fitted maximal effect.

Experiment: qHTS of GLP-1 Receptor Inverse Agonists: Cytotox Screen
Conditions: HEK293 cAMP-luciferase reporter cells, luminescence, 24 h; activity change, negative = inhibition: at 38.3 µM (top of the series) unless noted
Summary of the method: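 1536-well qHTS counterscreen of the MLSMR; 200 cells/uL, 12 h pre-incubation, 23 nL cpd, 24 h at 37 deg C 5% CO2, luciferase detection reagent, 12 min RT, luminescence. Inhibition = undesired.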
In the case of `O=C1N(Cc2cccc(Cl)c2)C[C@@H]2C[C@@H](c3cccc4ncccc34)N3CCC[C@@]123`, the “activity change, negative = inhibition” value is reported as inactive: -3.35%.
With `COC(=O)C1=C(C)NC(C)=C(C(=O)OC)C1c1ccccc1OCc1c(C)no[n+]1[O-]` the Potency was inconclusive: 0.501 µM [inhibitor, full curve, poor fit].
With `COc1ccc(Cl)cc1NC(=S)NCCC(c1ccccc1)c1ccccc1` the activity change, negative = inhibition was inactive: 10.7% [at 1.53 µM].
With `CCOC(=O)[C@H]1[C@H]2COc3ccccc3[C@@H]2N2C(=O)c3c(C)cc(C)cc3NC(=O)[C@@]12C` the Potency was inconclusive: 12.6 µM [inhibitor, single point].
In the case of `O=C(Cc1ccc(F)cc1)N(c1ccc(F)cc1)C1C=CS(=O)(=O)C1` (stereo not given), the Potency is reported as inconclusive: 28.2 µM [inhibitor, single point].
For `CCOCCCN1C(=O)c2ccccc2CC1(C)C(=O)NC1CCCCC1` (stereo not given), the “activity change, negative = inhibition” value was inactive: 1.77%.
In the case of `COc1ccc(/C=C/C(=O)Nc2nc(-c3cccs3)ns2)cc1`, the “activity change, negative = inhibition” value is reported as inactive: 2.02%.
In the case of `CCOc1ccc(C(=O)NC(=S)Nc2ccccc2N2CCCCC2)cc1[N+](=O)[O-]`, the Potency is reported as inconclusive: 11.2 µM [inhibitor, partial curve, poor fit].
For `COc1ccc(S(=O)(=O)N(C)C[C@H]2Oc3ccc(NC(=O)Nc4ccc5c(c4)OCO5)cc3CC(=O)N([C@@H](C)CO)C[C@@H]2C)cc1`, the Potency was inconclusive: 28.2 µM [inhibitor, single point].
For `Cc1cccc(NC2=C/C(=N/S(=O)(=O)c3cccs3)c3ccccc3C2=O)c1`, the “activity change, negative = inhibition” value was inactive: -27.8%.
In the case of `Cc1ccc(NC(=O)C(=O)Nc2ccccn2)cc1`, the “activity change, negative = inhibition” value is reported as inactive: 1%.
With `Cc1cc(C)cc(NC(=S)N(CCN(C)C)Cc2cccs2)c1` the Potency was inconclusive: 28.2 µM [inhibitor, single point].
In the case of `CN(C)CCNc1nc2sc3c(c2c(=O)n1Cc1ccccc1)CCCCC3`, the Potency is reported as inconclusive: 28.2 µM [inhibitor, single point].
For `S=C(NCc1ccccc1)NCc1ccccc1Cl`, the Potency was inconclusive: 28.2 µM [inhibitor, single point].
In the case of `O=[N+]([O-])c1nn(-c2ccc3c(c2)OCCO3)n(O)c1=Nc1ccccc1`, the Potency is reported as inconclusive: 28.2 µM [inhibitor, single point].
In the case of `CCN(CC)CCn1c(NC(=O)c2ccccc2O)nc2ccccc21`, the Potency is reported as inconclusive: 28.2 µM [inhibitor, single point].
In the case of `Cc1cccc(Cn2c(=O)n(Cc3ccccc3)c(=O)c3c2c2cc(C)ccc2n3C)c1`, the “activity change, negative = inhibition” value is reported as inactive: -3.93%.
In the case of `CCOC(=O)Cc1csc(NC(=S)NC(=O)CC(C)C)n1`, the Potency is reported as inconclusive: 28.2 µM [inhibitor, single point].
In the case of `CCOCCn1c(-c2ccccc2)nc2ccccc21`, the Potency is reported as inconclusive: 11.2 µM [inhibitor, single point].
For `CC(=O)c1ccc(NC(=O)CSc2nc(N)c3cc4c(nc3n2)CCCC4)cc1`, the Potency was inconclusive: 12.6 µM [inhibitor, single point].
In the case of `CN1C2CCC1/C(=C\c1ccccc1)C(=O)/C2=C\c1ccccc1`, the Potency is reported as inconclusive: 28.2 µM [inhibitor, single point].
With `COc1cccc(N=NC2C(=O)N(C(N)=S)N=C2C)c1` (stereo not given) the Potency was inconclusive: 0.794 µM [inhibitor, full curve, poor fit].
With `O=c1cc(-c2ccccc2)cc(-c2ccccc2)n1O` the Potency was inconclusive: 5.01 µM [inhibitor, full curve].
With `C(=N\Nc1nc2ccccc2s1)/c1cccs1` the Potency was inconclusive: 28.2 µM [inhibitor, single point].
For `COc1ccc(NC(=O)CN(C)C(=O)c2cccc(NS(=O)(=O)c3ccc(Br)cc3)c2)cc1`, the Potency was inconclusive: 10 µM [inhibitor, single point].
With `COc1ccc(-c2nnn(CC(=O)N(CCCN3CCOCC3)C(C(=O)NC3CCCC3)c3ccco3)n2)cc1` (stereo not given) the “activity change, negative = inhibition” value was inactive: 4.07%.
In the case of `COc1cccc(-n2c(SCC(N)=O)nc3c([nH]c4ccccc43)c2=O)c1`, the Potency is reported as inconclusive: 22.4 µM [inhibitor, single point].
For `C=CC[C@H](CC(=O)N(CCO)Cc1ccccc1)C(=O)N[C@H](COC(=O)[C@H](CC=C)CC(=O)OC(C)(C)C)Cc1c[nH]c2ccccc12`, the Potency was inconclusive: 20 µM [inhibitor, single point].
In the case of `Cc1cc(C)nc(Nc2nc(C(N)Cc3ccc(C(F)(F)F)cc3)cs2)n1` (stereo not given), the Potency is reported as inconclusive: 28.2 µM [inhibitor, single point].
With `C=CC(=O)Nc1ccc(Br)cc1` the “activity change, negative = inhibition” value was inactive: -13.4%.
For `Oc1ccc2ccccc2c1N=Nc1ccccn1`, the Potency was active: 2.51 µM.
In the case of `N#C/C(=C\c1ccc(O)c([N+](=O)[O-])c1)C(=O)NCc1ccccc1`, the Potency is reported as inconclusive: 11.2 µM [inhibitor, single point].
In the case of `CC(C)(C)NC(=O)C(c1ccc(-c2ccccc2)cc1)N(C[C@H]1CC[C@@H]([C@@H]2CC[C@H](CO)O2)O1)C(=O)c1ccc(C(C)(C)C)cc1` (stereo not given in full), the Potency is reported as inconclusive: 14.1 µM [inhibitor, single point].
For `NN1C(=O)/C(=C2/Sc3ccccc3N2CCCS(=O)(=O)O)SC1=S`, the Potency was inconclusive: 7.94 µM [inhibitor, partial curve, poor fit].
With `O=C(ONc1ccc(N=NC(=O)c2ccccc2O)cc1)c1ccccc1` the Potency was inconclusive: 3.98 µM [inhibitor, partial curve].
In the case of `Cc1ccc(COc2ccccc2-c2cc(C(=O)N/N=C/c3cccnc3)[nH]n2)cc1`, the Potency is reported as inconclusive: 0.447 µM [inhibitor, full curve, poor fit].
In the case of `COc1cccc(-c2nc(C(=O)NCC3CCCO3)cc3c2[nH]c2ccccc23)c1` (stereo not given), the Potency is reported as inconclusive: 11.2 µM [inhibitor, single point].
For `O=C(/C=C/c1cccnc1)/C=C/c1cccnc1`, the Potency was inconclusive: 10 µM [inhibitor, partial curve].
With `Cc1c(NC(=S)N/N=C/C=C/c2ccccc2)c(=O)n(-c2ccccc2)n1C` the Potency was inconclusive: 4.47 µM [inhibitor, partial curve].
In the case of `CCCCCc1cc(=O)oc2c(C(CCN3CCCC3)c3cc(OC)c(OC)c(OC)c3)c(OC)cc(OC)c12` (stereo not given), the Potency is reported as inconclusive: 7.08 µM [inhibitor, partial curve, poor fit].
